# The list shows a part of the results, in another mix than the full data. Results filed as inconclusive are left out. A structure can be active in one record and inactive in another. Calls of active or inactive are those of the source. Unless noted, the call rests on the fitted dose curve; in most records, active means well fitted curve in the direction sought with a large enough effect in the repeat runs; inconclusive means weak or mixed curves; inactive means no such curve, though single readings can be large; an effect the other way counts as inactive or inconclusive.
# Assay: qHTS assay to identify small molecule antagonists of the androgen receptor (AR) signaling pathway - cell viability counter screen (AID 743033; further: nearly all actives have a fitted effect of over 45% in size)
# Settings: AR-bla HEK293 viability, CellTiter-Glo luminescence, 16 h
# Potency means the concentration at half of the fitted maximal effect.
row,SMILES,Potency
1,Oc1cc(Cl)ccc1Oc1ccc(Cl)cc1Cl,active: 12.6 µM
2,NNC(N)=S,active: 43.6 µM
3,ClC1=C(Cl)[C@]2(Cl)[C@@H]3[C@@H]4C[C@@H]([C@H]5O[C@@H]45)[C@@H]3[C@@]1(Cl)C2(Cl)Cl,active: 49 µM
4,CCCCCCCCCC(CC)c1ccc(S(=O)(=O)O)cc1 (stereo unspecified),active: 27.5 µM

# Assay: qHTS assay to identify small molecule antagonists of the androgen receptor (AR) signaling pathway using the MDA cell line - cell viability counter screen (AID 743041; further: nearly all actives have a fitted effect of over 45% in size; on viability change, negative = cytotoxic: on the % scale 0 is the no-effect control and ±100 the full control effect)
# Settings: MDA-kb2 viability, CellTiter-Fluor, 16 h, cells co-treated with R1881 androgen agonist; series mostly up to 70.3 µM; viability change, negative = cytotoxic: at the top concentration
# Method in brief: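 Using the breast carcinoma line MDA-kb2 AR-luc, test chemicals were co-incubated with R1881 for 16 h; CellTiter-Fluor reagent, added at 15.5 h, provided a fluorescence measure of live cells.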
SMILES,Potency,"viability change, negative = cytotoxic"
Nc1ccc(N=Nc2ccccc2)cc1,active: 54.5 µM,–
Nc1ccc(-c2ccc(N)c(Cl)c2)cc1Cl,–,inactive: 4.57%
CCCCCCCCCCCC[N+](C)(C)CCOc1ccccc1,active: 68.6 µM,–
Oc1cc(Cl)ccc1Oc1ccc(Cl)cc1Cl,active: 27.3 µM,–
CC(C)CC(C)Nc1ccc(Nc2ccccc2)cc1 (stereo unspecified),active: 60.1 µM,–

# Assay: qHTS assay to identify small molecule antagonists of the estrogen related receptor signaling pathway with the pleiotropic PPARgamma coactivator (PGC) from Tox21 10K library - cell viability counter screen (AID 1224840; active means well fitted cell-killing curve with a large enough effect in the repeat runs, not every such curve was filed as active; further: nearly all actives have a fitted effect of over 40% in size; on viability change, negative = cytotoxic: on the % scale 0 is the no-effect control and ±100 the full control effect)
# Settings: PGC/ERR reporter cells viability, CellTiter-Fluor, 17.5 h; series mostly up to 92.4 µM; viability change, negative = cytotoxic: at the top concentration
# Text: National Center for Advancing Translational Sciences [NCATS]
# NIH Chemical Genomics Center [NCGC]
# U.S. Environmental Protection Agency [EPA]
# National Institutes of Environmental Health Sciences [NIEHS]
# National Toxicology Program [NTP]
# U.S. Food and Drug Administration [FDA]
# Estrogen related receptors (ERRs), the first orphan nuclear receptors discovered, play an important role in the control of cellular energy metabolism. ERRs are required for high-energy production in response to the environmental challenges. The pleiotropic PPARgamma coactivator (PGC) is a major partner of ERR and a key regulator in energy homeostasis. Together they have been implicated in the etiology of metabolic disorders such as Type 2 diabetes and metabolic syndrome. ERR-alpha was also identified as an adverse marker for breast cancer progression; ERR-alpha-positive tumors have a poor prognosis. To screen and to identify environmental compounds that perturb the ERR and PGC/ERR signaling pathways could provide valuable information for potential therapeutic or preventive measures in the treatment of metabolic disease. To differentiate true PGC/ERR antagonists or agonist from cytotoxic substances, the assay is multiplexed with cell viability assay.
# Tox21 Assay Protocol Summary:
# The PGC/ERR cells were dispensed at 2,000 cells/5 ul/well in 1536-well white plates using a Multidrop dispenser. After the assay plates were incubated at a 37 C/5% CO2 incubator for 6 hours, 23 nL of compounds dissolved in DMSO, positive and negative controls or DMSO only was transferred to the assay plate by a pin tool. The plates were incubated at 37 C for 17.5 hours. 1 ul/well of CellTiter-Fluor reagent was added into the assay plates using a Flying Reagent Dispenser. After 30-minute incubation at 37 C/5% CO2, the fluorescence intensity in the plates was measured using a ViewLux plate reader.
SMILES,"viability change, negative = cytotoxic",Potency
CCOP(=O)(NC(C)C)Oc1ccc(SC)c(C)c1 (stereo unspecified),inactive: -6.78%,–
CC(C)(C)c1cc(O)ccc1O,inactive: 1.51%,–
CC(C)(C)CC(C)(C)c1ccc(O)cc1,–,active: 48.6 µM
COc1nn(CSP(=S)(OC)OC)c(=O)s1,inactive: -14.9%,–

# Assay: qHTS assay to identify small molecule antagonists of the estrogen receptor beta (ER-beta) signaling pathway - cell viability counter screen (AID 1259382); further: nearly all actives have a fitted effect of over 55% in size
# Settings: ER-beta-UAS-bla HEK293T viability, CellTiter-Glo luminescence, 16 h
# Method in brief: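 Viability is scored by CellTiter-Glo luminescence (30 min, room temperature) in ER-beta-UAS-bla HEK293T wells already read for reporter fluorescence. Compound exposure lasts 16 hr at 37C alongside 1nM 17-beta-estradiol in charcoal-stripped serum medium.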
row,SMILES,Potency
1,O=S(=O)(O)C(F)(F)C(F)(F)C(F)(F)C(F)(F)C(F)(F)C(F)(F)C(F)(F)C(F)(F)F,active: 26.5 µM
2,ClC1=C(Cl)[C@]2(Cl)[C@@H]3[C@@H]4C[C@@H]([C@H]5O[C@@H]45)[C@@H]3[C@@]1(Cl)C2(Cl)Cl,active: 68.6 µM
3,CCCCCCCCCC(CC)c1ccc(S(=O)(=O)O)cc1 (stereo unspecified),active: 25.8 µM

# Source: PubChem BioAssay (Tox21)
